Test results reported in the antibiotic and cytotoxicity screens of Wong et al. (2023).
The other results are listed elsewhere or left out.

Tests used:
HSkMC = human skeletal muscle cells; assay: cytotoxicity call (relative viability < 0.9); settings: 10 µM
HepG2 = assay: cytotoxicity call (relative viability < 0.9); settings: 10 µM
S. aureus RN4220 = assay: growth inhibition call (relative growth <= 0.2); settings: 50 µM

Row | SMILES | cytotoxicity call (HSkMC) | cytotoxicity call (HepG2) | growth inhibition call (S. aureus RN4220)
1 | CN1C(=O)c2cc(NS(=O)(=O)c3ccc(F)cc3)ccc2OC[C@@H]2O[C@@H](CC(=O)NCC(F)(F)F)CC[C@@H]21 | inactive | inactive | inactive
2 | C[C@@H]1CN([C@@H](C)CO)C(=O)Cc2cc(NS(=O)(=O)c3ccccc3)ccc2O[C@@H]1CN(C)Cc1ccc(-c2ccccc2)cc1 | active | active | inactive
3 | O=C(C[C@@H]1CC=CCC[C@@H](Cc2ccc(F)cc2)C(=O)OC[C@H](Cc2ccccc2)NC1=O)NCCO | inactive | inactive | inactive
4 | CO[C@@H]1CN(C)C(=O)c2cc(NS(=O)(=O)c3cn(C)cn3)ccc2OC[C@@H](C)N(Cc2cccc(F)c2)C[C@H]1C | inactive | inactive | inactive
5 | C[C@@H]1CN([C@H](C)CO)C(=O)c2cc(NC(=O)Nc3ccc(C(F)(F)F)cc3)ccc2O[C@@H]1CN(C)C(=O)Nc1ccc(F)cc1 | active | active | inactive
6 | Cc1ccc(S(=O)(=O)Nc2ccc3c(c2)C(=O)N([C@@H](C)CO)C[C@H](C)[C@@H](CN(C)C(=O)Nc2ccccc2)OCCCC[C@@H](C)O3)cc1 | inactive | inactive | inactive
7 | COc1ccc(NC(=O)Nc2ccc3c(c2)C(=O)N([C@H](C)CO)C[C@H](C)[C@@H](CN(C)C(=O)C2CCCCC2)OCCCC[C@@H](C)O3)cc1 | inactive | inactive | inactive
8 | CN1C(=O)c2cc(NS(=O)(=O)c3cccc(F)c3)ccc2OC[C@@H]2O[C@H](CC(=O)NCCN3CCCCC3)CC[C@H]21 | inactive | inactive | inactive
9 | COc1cccc(S(=O)(=O)Nc2ccc3c(c2)[C@@H]2C[C@@H](CC(=O)NCc4cccc(F)c4)O[C@H](CO)[C@@H]2O3)c1 | inactive | inactive | inactive
10 | C[C@@H]1CN([C@@H](C)CO)C(=O)c2cc(NS(=O)(=O)c3cccs3)ccc2O[C@@H](C)CCCCO[C@H]1CN(C)Cc1ccccc1 | inactive | active | inactive
11 | COc1ccc(NC(=O)Nc2cccc3c2O[C@@H](CN(C)Cc2ccc(C(=O)Nc4ccccc4N)cc2)[C@H](C)CN([C@H](C)CO)C3=O)cc1 | inactive | inactive | inactive
12 | COc1ccccc1C#Cc1ccc2c(c1)O[C@H](CN(C)Cc1cncnc1)[C@H](C)CN([C@H](C)CO)S2(=O)=O | inactive | inactive | inactive
13 | CCCCN1C[C@H](O)[C@@H](O)[C@H](O)[C@H]1CO | inactive | inactive | inactive
14 | Cc1noc(C)c1NC(=O)N(C)C[C@H]1OCCCC[C@H](C)Oc2ccc(NS(=O)(=O)c3cccs3)cc2C(=O)N([C@H](C)CO)C[C@@H]1C | inactive | inactive | inactive
15 | CCS(=O)(=O)N1C[C@]2(CCN(CC2)C(=O)Cc2ccccc2)c2c(n(c3cc(ccc23)OC)C)[C@H]1CO | inactive | inactive | inactive
16 | Cc1noc(C)c1NC(=O)N(C)C[C@@H]1Oc2cc(Br)ccc2S(=O)(=O)N([C@@H](C)CO)C[C@H]1C | inactive | inactive | inactive
17 | COc1ccc(S(=O)(=O)N(C)C[C@@H]2OCCCC[C@@H](C)Oc3ccc(NC(=O)Nc4c(C)noc4C)cc3C(=O)N([C@H](C)CO)C[C@H]2C)cc1 | inactive | inactive | inactive
18 | C[C@@H]1CN([C@H](C)CO)C(=O)c2cc(NS(=O)(=O)c3ccc(Cl)cc3)ccc2O[C@@H](C)CCCCO[C@@H]1CN(C)C(=O)c1ccncc1 | inactive | inactive | inactive
19 | CC(C)CC#Cc1ccc2c(c1)O[C@@H](CN(C)C(=O)c1cnccn1)[C@@H](C)CN([C@@H](C)CO)S2(=O)=O | inactive | inactive | inactive
20 | COc1ccc(S(=O)(=O)N(C)C[C@@H]2Oc3ncc(Br)cc3C(=O)N([C@H](C)CO)C[C@@H]2C)cc1 | inactive | inactive | inactive
21 | C[C@@H]1CCCCO[C@@H](CN(C)C(=O)Nc2cccc3ccccc23)[C@@H](C)CN([C@H](C)CO)C(=O)c2cc(NS(=O)(=O)c3ccccc3)ccc2O1 | inactive | inactive | inactive
22 | C=CCOC(=O)[C@H]1[C@@H]2C(=O)O[C@@H](c3ccccc3)[C@@H](c3ccccc3)N2[C@@H](c2ccc(OCCOC(=O)[C@@H]3C[C@@H]4C(=O)N[C@@H](CC(C)C)C(=O)N4[C@@H]3c3ccc(O)cc3)cc2)[C@]12C(=O)Nc1ccccc12 | inactive | inactive | inactive
23 | COCC#Cc1ccc2c(c1)O[C@@H](CN(C)S(=O)(=O)c1cccc(OC)c1)[C@H](C)CN([C@H](C)CO)S2(=O)=O | inactive | inactive | inactive
